Source: patent US9757424B2, “Compositions and methods of treating gliomas” (BioMed Valley Discoveries, Inc., priority 2011, dated 2017)
At least one read-out could not be matched to a standard name with certainty. At least one structure is not confirmed: it was looked up by name or label, or the drawing left a doubt.

Tested on: U87MG tumor fragments
Conditions: for MTV(n) Day 29 (median tumor volume): combination: temozolomide 5 po qd x 5 + agent qd x 30 (Candesartan 10 ip, Valsartan 30 ip, Carvedilol 200 po, Irbesartan 100 po, Amlodipine 10 ip, Clonidine 1 ip, Olmesartan 10 po, Ramipril 5 po, Enalapril 5 ip, Benazepril 10 ip, Quinapril 15 po, Aliskiren 50 ip, Guanabenz 1 ip, Diltiazem 20 po, Lercanidipine 3 po, Labetalol 10 sc); for Regression PR (partial regression) / % TGI (percent tumor growth inhibition, compared to Group 1): combination: temozolomide 5 po qd x 5 + agent qd x 30 (doses as under E7); for Regression PR (partial regression): number of animals; for % TGI (percent tumor growth inhibition, compared to Group 1): vs Group 1 temozolomide 5 alone
Description: HRLN female nu/nu mice were seeded with 1 mm^3 U87MG tumor fragments subcutaneously in the flank. Final caliper and body weight measurements were taken on the last day of the study.
All animals were assessed periodically for body weight, as well as tumor burden, using standard protocols with mechanical calipers. […] Dosing was stopped for any group with two measurements of mean body weight loss of greater than 20%. The group was not euthanized, and recovery was allowed. Within a group with greater than 20% weight loss, individuals reaching the individual body weight loss endpoint were euthanized. If the group body weight loss was recovered, dosing may resume. […] Dosing was then resumed with the candidate agent at half the original dose. Animals were monitored as a group. The endpoint of the experiment was a mean tumor weight in control group (or group 1) of 2000 mm^3 or 60 days, whichever comes first. When the endpoint was reached, all the animals were euthanized.

Row | SMILES | MTV(n) Day 29 (median tumor volume) | Regression PR (partial regression) | % TGI (percent tumor growth inhibition, compared to Group 1) [%] | combination effect with temozolomide (median group tumor burden at Day 36) (dosed in combination with 5 mg/kg temozolomide, FIG. 19)
1 | COc1ccccc1OCCNCC(O)COc1cccc2[nH]c3ccccc3c12 (centres unmarked) [Carvedilol] | 126 (8) mm^3 | 1 | 69 | 
2 | CCOC(=O)[C@H](CCc1ccccc1)N[C@@H](C)C(=O)N1CCC[C@H]1C(=O)O [Enalapril] | 54 (8) mm^3 | 2 | 87 | 
3 | N=C(N)N/N=C/c1c(Cl)cccc1Cl [Guanabenz] | 508 (8) mm^3 | 0 | −24 | 
4 | CC(CCc1ccccc1)NCC(O)c1ccc(O)c(C(N)=O)c1 (centres unmarked) [Labetalol] | 76 (8) mm^3 | 3 | 81 | 
5 | COCCCOc1cc(C[C@@H](C[C@H](N)[C@@H](O)C[C@H](C(=O)NCC(C)(C)C(N)=O)C(C)C)C(C)C)ccc1OC [aliskerin, aliskiren] |  | 1 | 88 | 
6 | CCOC(=O)C1=C(COCCN)NC(C)=C(C(=O)OC)C1c1ccccc1Cl (centres unmarked) [amlodipine] |  | 2 | 82 | modest combination effects
7 | CCOC(=O)[C@H](CCc1ccccc1)N[C@H]1CCc2ccccc2N(CC(=O)O)C1=O [benazepril] | 32 (7) mm^3 | 1 | 92 | 
8 | COc1ccc([C@@H]2Sc3ccccc3N(CCN(C)C)C(=O)[C@@H]2OC(C)=O)cc1 [diltiazem] | 117 (8) mm^3 | 0 | 71 | 
9 | CCCCC1=NC2(CCCC2)C(=O)N1Cc1ccc(-c2ccccc2-c2nnn[nH]2)cc1 [irbesartan] | 70 (8) mm^3 | 0 | 83 | 
10 | COC(=O)C1=C(C)NC(C)=C(C(=O)OC(C)(C)CN(C)CCC(c2ccccc2)c2ccccc2)C1c1cccc([N+](=O)[O-])c1 (centres unmarked) [lercanidipine] | 16 (8) mm^3 | 2 | 96 | 
11 | CCCc1nc(C(C)(C)O)c(C(=O)O)n1Cc1ccc(-c2ccccc2-c2nnn[nH]2)cc1 [olmesartan] | 27 (8) mm^3 | 1 | 93 | 
12 | CCOC(=O)[C@H](CCc1ccccc1)N[C@@H](C)C(=O)N1Cc2ccccc2C[C@H]1C(=O)O [quinapril] | 86 (8) mm^3 | 1 | 79 | 
13 | CCOC(=O)[C@H](CCc1ccccc1)N[C@@H](C)C(=O)N1[C@H](C(=O)O)C[C@@H]2CCC[C@@H]21 [ramipril] | 86 (8) mm^3 | 4 | 79 | 
14 | CCCCC(=O)N(Cc1ccc(-c2ccccc2-c2nnn[nH]2)cc1)[C@H](C(=O)O)C(C)C [valsartan] | 39 (8) mm^3 | 0 | 90 | 
